From paper PMC10726135
This is one part of the list. At the low end of the ranking, values are background and their order means little. The protein was read in a cell extract, so binding may be indirect.

These sequences were tested against T1, HNF4alpha2 (COS-7 nuclear extract) (UniProt P41235) (assay: protein-binding microarray). Conditions: COS-7 nuclear extract on double-stranded Agilent 4x180k PBM; binding buffer, salt, pH and temperature not given; high values mean tight binding; double strand, one strand shown; sequences stand for … in …GCCTAGGGAGATTAGAGTATCGGTCGA.
T1 sequence: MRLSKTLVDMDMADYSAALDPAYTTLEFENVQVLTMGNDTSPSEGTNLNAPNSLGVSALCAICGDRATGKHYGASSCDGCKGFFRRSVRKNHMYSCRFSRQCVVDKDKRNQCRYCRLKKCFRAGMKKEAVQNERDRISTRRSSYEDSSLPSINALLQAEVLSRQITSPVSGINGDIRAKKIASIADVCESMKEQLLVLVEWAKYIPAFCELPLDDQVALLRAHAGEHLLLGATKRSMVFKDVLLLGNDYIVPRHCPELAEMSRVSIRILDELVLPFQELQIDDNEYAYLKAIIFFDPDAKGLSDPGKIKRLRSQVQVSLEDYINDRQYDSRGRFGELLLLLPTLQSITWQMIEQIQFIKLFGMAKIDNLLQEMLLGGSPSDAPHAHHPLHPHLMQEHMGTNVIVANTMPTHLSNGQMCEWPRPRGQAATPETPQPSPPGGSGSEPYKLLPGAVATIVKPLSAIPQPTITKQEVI

Sequence	binding signal (log2 normalized intensity)
GTGACCTTTGACCTCAGAGAGCCGGAAACT	7.21
GCACTGGTTCAAAGTGTAGCGCAGCCAGTT	-0.821
TCTGGGGCCTATCTTTCTGTCTCATTCCCT	-0.0755
AAGTCAGGTACTGGTAGCCTGGGCCCCAGG	-0.803
CAAGAATACGGATTCTTAAGGGCAAAGGTT	5.88
CCCCACTGTAGTAAGGGAGTGTGGGGTGGT	-0.108
TGACTGTGGTACTCCAAAGGTCAGTTTAAT	4.06
TCTTTGCCCATAGAATCTTAGGAAAGCACA	-0.987
TCTTATTGCCTCATGTTTGCAGAATGGCTG	1.25
GTTGGTTTCTGGGATTTGTACAAGTGATTG	1.89
GGCCTTGGGCCACCTGAGACAGTTTATGCC	-0.994
AGAAATATCAGCAAGGAAATAAAAGAGCCT	-1.34
TGATGACGCCACGCCGCTCTTTCTCTTTCA	-1.08
CTTACTTGGCCTGTTTGCTGAAGGCCATGC	0.0452
CAGAGGGAAGAGGAAGCATCCTATAGGCCT	-1.05
AAGATAGGAATGTACATAATCTGGACCCAA	3.59
GAAACCCTAAACCTGCAAACCTTTGACCTT	5.31
TGCTGTCTGTCTTCGGGCGGCGGCCTCTGG	0.733
CAGAAAGCTCTTTGCACAGTACTGATCTGG	0.94
GCCTAGGTATTGAGGGAGCAAAGGGCATGG	3.41
CCGCGATTCCCGCCGCCTCCGCTGGGGGAC	-1.16
AATGCGAGAGTACACAGAAGTTAATTTCAA	-1.21
CTTCCCAATCAGAAACCGGGCCAATGGGTT	0.701
CTTCAGCTTGAAAACACAACAAAAGAACTC	-0.456

Sequence	binding signal (log2 normalized intensity)
TCATTTCAGCCTTAACTCAAAAGGCCAAAG	-0.978
TTTGGTACTCTTATCAGCAGTGACTTGAGA	0.303
GGGGCGATGCTTCCAAAGTCCACAGTCCCC	2.91
AGGGTTATGGGAAGTGGGGTAAGCAAGGCT	-1.25
AAGAGGCTGTCAACGGAGGTGGGAAAGACT	-1.11
TGAGCACATTCTTCAATATCAGTGGCACTC	-0.0767
TTACAACTGTAAACATCTAATGAACTGATT	-1.03
CTCTAAATTCCAGGGCTGGGTCCAGGAATG	0.442
AGATTACTTCAAGGCTGGAGTTCACTCCCA	-0.354
GCAACTATTTATGAGTCTTGGGAATGAATC	1.61
CAGAGCTTGCTGCATTCCCCCACCTACTGT	3.6
AGGCTGTCAGAGTGCTGCATGCAAAAAGGC	-0.743
GCCTCTCAGCTCATTCAAAGTCCAAAAAGA	2.84
TCCCCTGAGCTTGAGTCCATCCCATCTTCC	1.39
GAGACAATCACTTGTATCGCCTGAATGACC	1.74
CAGGCCAGTAGGTCAGTGTCCCTCTTATAC	1.34
TAATGCTGGTAAAGCACTTTGCCCCCAAGA	5.54
GCTTTGTTCTGTTCCAGTTATGTTCTCTGT	2.07
GGGTAACTGACCTTGTTGCCCACCCCCCAA	5.88
CTTATCTGGCCTGCTGGGAACTCAGGATCA	-1.15
CATCCAAAGTTTCCTCTCCTGCCCTACTCC	2.61
CTGTCGTCCCAGGGCAAAGGTCACCAGCTA	6.66
GCCAAGGAAGAGAAGACCAAACAACCAGGG	-0.987
GAGTTCCTTCAGACCCAATAAACTTGTTTG	0.0934

Sequence	binding signal (log2 normalized intensity)
TGGTATCCACAGAGTTCATAATTTTGGACT	2.52
AAGCCTCAGGAGTTGGAGGAACAGGTGGGG	-1.09
TGCTGAGTATGCAGCGGGCAGCCCGTGTGG	-1.02
TAGGCCGGTCAAGTCAGAGGCCCAGCAAGG	-1.17
ACCAGTCCCATCTGTGCTCATTATTATCAG	0.942
CGGGTGGACGTCCCCGGGCGGGATGGGGTC	1.69
GAGTGAAGCCACAGAGATCAGAATCATAAA	-1.12
CAGGCTCAGGGACCCAGCGGAATGCCAGCC	-0.98
CAAACAGCTTCCAGAATAGCCTCTGCAACT	-1.14
CCTCATGGGCGATCCCGAAAGCCGGTTCCC	-1.19
GTATGTGCCTGGAGAGCTAGTAAGGAGCTG	-1.17
CTGCGGCGGAAGGACACAGATTCAGAGTCA	-1.21
TTGAGCTCTGCACAGCACAAGATAAGATAG	-1.02
GTCCATGATTGCTGTCTACTCTGGGGGTCA	3.52
AGGTCAAAAATGATGCCTGACTCAAGAAAG	-1.19
CAAAGTCCAGTAAGGACAGTTCCAGGAATG	1.54
AAAGGGCAAAGGTCAGCTCATTCCCTAGGG	6.27
GGGCAAAGTCCCCTTTCCTCATATTTTGCA	2.13
GTCTATCCTTATTTATCTTCCAGCGGGTGC	1.78
AGGGTGAAGTTTGGCAATTACCCAACAGAC	-1.22
ACCAAAAAGGCTAACTTACCCGCTTAAGAG	-1.13
GGACTTTGAAGCTCCAAGATAGGAATGTAC	2
GGGCAAAGGAATAAAATAGCTGCCTGTGTG	-1.14
TGAATATTTGCTTTCCAGTTCTTTGATAGC	1.44

Sequence	binding signal (log2 normalized intensity)
TCCATTCCGCGAGGGTCCCCACCTTCCATT	1.41
CTGAGATAGTCATTCTTCTACAGTGTTTAC	0.901
AAGGATCAAAGTCACTCAGCCCGAGAAACG	-1.14
CCACATGGATGGATTCAGATCCAGTGGACT	2.18
TACAAGGAGCAGCCTAGTAAAAGGTAGATA	-1.21
GACATCTATCAACATATCTTATCCTCACAC	-0.201
TACCAGATAGATGCTGCTCTCCCACTCCCC	2.28
CCTCGAGGCAACCTTTGACCTGGTACTATG	6.02
AGAATGACCAGGAGTTTGGGATCAGACACG	-1.05
CCACACCTGTGAAGATCAGCTATCAGTTTA	-1.18
AAGAAAAGTTATGTTGGGCAACTACCTCAA	-1.08
CCACACATTGCCACACTATTTACACAGCTG	-1.07
AAATGCATTATTGCACTGTGCTTTGTTTAC	1.4
CCAACCGGTTCCACAGTATCCCTTGCTCAA	-1.14
TTCTGCTGGATGCCCAGGGATTCCTGAAGA	-0.0749
TGCCAAAGGTTAAAATTCCCTGTGGAATTT	1.86
GATTTTGTCCTGAGTTATTGGAAGAATGGA	1.3
TTGGAATGTGACGGCAGGTCCATGGTCAGC	0.879
GGTATGCCTTTGAAGAGTACAGCCTTGCGT	0.667
GGCTGAATGGGCAAAGGTCACAAGAGGTGC	4.6
GCCTCCCAGAACGTGGCCTTTAATCAACTG	-0.0774
